# The supplement of paper PMC9135407
# “And” between values parts separate entries of the source, which are not always exact repeats. Equal entries are not always repeated. Structures can show the parent of a compound that is named as a salt. Among all 5,800 compounds or so, about 620 (11%) showed activity.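 How the source made its calls: active = score above a cut-off or among the top three wells of a plate; in these data no inactive exceeds 0.85.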 The list shows a part of the results, in another mix than the full data.
# Tested on: primary human hepatic stellate cells (donor 1)
# Experiment: scaled lipid accumulation score (0 = DMSO-like, 1 = nortriptyline-like); higher = stronger HSC inactivation (lipid re-accumulation), active = hit call of the paper
# Details: 48 h
# Description: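 Primary lipid accumulation screen in primary human hepatic stellate cell myofibroblasts (donor 1, passage 8) in 384-well plates. 100 nL of library compound was pin-transferred into 30 µL medium in duplicate, and cells were treated for 48 h. The 'Scaled' score combines distance from plate baseline, toxicity and reproducibility penalties, and is normalised to nortriptyline (positive) and DMSO (negative) controls on each plate. A hit is defined as scaled >0.85 or among the top 3 wells per plate.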
# [1] = library stock concentration: 10 mM
# [2] = library stock concentration: 80 uM
# [3] = library stock concentration: 400 uM
# [4] = library stock concentration: 2 mM
# [5] = library stock concentration: 3.33 mM
# [6] = library stock concentration: 1 mM
# [7] = library stock concentration: 100 uM
smiles,measurement,setting,value
OC[C@@H](O)[C@@H](O[C@@H]1O[C@H](CO)[C@H](O)[C@H](O)[C@H]1O)[C@H](O)[C@@H](O)CO,scaled lipid accumulation score,[1],inactive: ≤ 0
Cn1cc(-c2ccc3nnc(C(F)(F)c4ccc5ncccc5c4)n3n2)cn1,scaled lipid accumulation score,[2],inactive: ≤ -0.009
same,scaled lipid accumulation score,[3],inactive: ≤ -0.009 and inactive: ≤ -0.005
same,scaled lipid accumulation score,[4],inactive: 0.006 and inactive: ≤ -0.005
same,scaled lipid accumulation score,[5],inactive: ≤ 0
same,scaled lipid accumulation score,[1],inactive: ≤ 0 and inactive: 0.023 and inactive: ≤ -0.005
c1ccc2[nH]c(-c3cscn3)nc2c1 [Thiabendazole],scaled lipid accumulation score,[5],inactive: 0.054
same,scaled lipid accumulation score,library stock concentration: 9.9 mM,inactive: ≤ 0
same,scaled lipid accumulation score,[1],inactive: ≤ 0
c1ccc2[nH]c(-c3cscn3)nc2c1 [Tiabendazole],scaled lipid accumulation score,,inactive: ≤ 0
c1ccc2[nH]c(-c3cscn3)nc2c1,scaled lipid accumulation score,[1],inactive: ≤ 0
CCC(CC)CC1(C(=O)Nc2ccccc2SC(=O)C(C)C)CCCCC1,scaled lipid accumulation score,[5],inactive: ≤ 0
same,scaled lipid accumulation score,[1],inactive: ≤ 0
CCCCCCCCCCCC1N[C@H](C(=O)O)CS1 (some centres not stated),scaled lipid accumulation score,[6],inactive: ≤ 0
CC(CN(C)C)CN1c2ccccc2CCc2ccccc21.O=C(O)/C=C\C(=O)O (configuration not stated) [Trimipramine maleate],scaled lipid accumulation score,[1],active: 0.877
CSc1nc(N)c2ncn([C@@H]3O[C@H](COP(=O)(O)OP(=O)(O)OP(=O)(O)O)[C@H](O)C3O)c2n1 (some centres not stated) [2-Methylthioadenosine triphosphate tetrasodium],scaled lipid accumulation score,[1],inactive: ≤ 0
"CC(=O)C(C)=O [2,3-Butanedione]",scaled lipid accumulation score,[1],inactive: 0.008
CCCC[C@H](C)C[C@H](O)/C=C/[C@H]1[C@H](O)CC(=O)[C@@H]1CCCCC(CC(=O)O)OC (some centres not stated) [3-methoxy Limaprost],scaled lipid accumulation score,[6],inactive: 0.012
CC1CS(=O)(=O)CCN1/N=C/c1ccc([N+](=O)[O-])o1 (configuration not stated) [Nifurtimox],scaled lipid accumulation score,,inactive: ≤ 0
CCCCC/C=C\CC1OC1C/C=C\C/C=C\CCCC(=O)O (configuration not stated),scaled lipid accumulation score,[7],inactive: ≤ -0.021
CC1(C)[C@H]2CC[C@]1(CS(=O)(=O)O)C(=O)C2=Cc1ccc(C=C2C(=O)[C@@]3(CS(=O)(=O)O)CC[C@@H]2C3(C)C)cc1,scaled lipid accumulation score,[1],inactive: ≤ 0
CCOC(=O)c1ncc2[nH]c3cccc(OC(C)C)c3c2c1C,scaled lipid accumulation score,[1],inactive: 0.014
COC1=C2C[C@@H](C)C[C@H](OC)[C@H](O)[C@@H](C)/C=C(\C)[C@H](OC(N)=O)[C@@H](OC)/C=C\C=C(/C)C(=O)NC(=CC1=O)C2=O [Geldanamycin],scaled lipid accumulation score,[5],inactive: 0.54
same,scaled lipid accumulation score,library stock concentration: 8.9 mM,inactive: 0.573
same,scaled lipid accumulation score,[1],inactive: 0.493
NC(=O)NC(=O)Cc1ccccc1 [Phenacemide],scaled lipid accumulation score,[1],inactive: ≤ 0
COc1ccc(C(=O)c2ccc(C)cc2)c(O)c1,scaled lipid accumulation score,[1],inactive: ≤ 0
COc1ccc(-c2cc(=O)c3c(O)cc(O[C@@H]4O[C@H](CO[C@@H]5O[C@@H](C)[C@H](O)[C@@H](O)[C@H]5O)[C@@H](O)[C@H](O)[C@H]4O)cc3o2)cc1O [Diosmin],scaled lipid accumulation score,[5],inactive: ≤ 0
same,scaled lipid accumulation score,[1],inactive: ≤ 0 and inactive: 0.011
COc1cc(Nc2ncc(F)c(Nc3ccc4c(n3)N(COP(=O)(O)O)C(=O)C(C)(C)O4)n2)cc(OC)c1OC [Fostamatinib (R788)],scaled lipid accumulation score,[5],inactive: 0.198
CN(C)CCC(c1ccc(Cl)cc1)c1ccccn1.O=C(O)/C=C\C(=O)O (configuration not stated),scaled lipid accumulation score,[1],active: 0.891
CCCCCCCC/C=C\CCCCCCCCCCCCCC(=O)N[C@@H](CO)[C@H](O)/C=C/CCCCCCCCCCCCC [Nervonic Ceramide],scaled lipid accumulation score,[6],inactive: 0.002
CN(C)CCC=C1c2ccccc2CCc2ccccc21.Cl [Amitriptyline HCl],scaled lipid accumulation score,[1],active: 0.863
"N#Cc1cc([N+](=O)[O-])c2sc(C(N)=O)[n+]([O-])c2c1 [Polo-like Kinase Inhibitor II, BTO-1]",scaled lipid accumulation score,[5],inactive: ≤ 0
O=C(Nc1ccc2c(c1)CCN(Cc1ncn[nH]1)C2)c1ccccc1-c1ccc(C(F)(F)F)cc1,scaled lipid accumulation score,[1],inactive: ≤ 0
Cn1c(=O)cc(N2CCC[C@@H](N)C2)n(Cc2ccccc2C#N)c1=O [Alogliptin],scaled lipid accumulation score,[5],inactive: ≤ 0
same,scaled lipid accumulation score,[1],inactive: ≤ 0
Cc1ccc(NC(=O)C(C)C)cc1C1CCN(Cc2ccc(Oc3ccc(F)c(F)c3)cc2)CC1.Cl,scaled lipid accumulation score,[1],active: 1.29
CCCCCCCN(CC)CCCC(O)c1ccc(NS(C)(=O)=O)cc1 (configuration not stated) [Ibutilide Fumarate],scaled lipid accumulation score,[5],inactive: 0.058
same,scaled lipid accumulation score,[1],inactive: 0.25
O=C(O)CCC(=O)Nc1ccc(S(=O)(=O)Nc2nccs2)cc1 [Succinylsulfathiazole],scaled lipid accumulation score,,inactive: ≤ 0
same,scaled lipid accumulation score,[1],inactive: ≤ 0
O=C(O)CCn1c2c(c3ccccc31)C[C@H](NS(=O)(=O)c1ccc(F)cc1)CC2,scaled lipid accumulation score,[6],inactive: ≤ 0
COc1cnc(NS(=O)(=O)c2ccc(N)cc2)nc1 [Sulfameter],scaled lipid accumulation score,,inactive: ≤ 0
same,scaled lipid accumulation score,[5],inactive: ≤ 0
same,scaled lipid accumulation score,library stock concentration: 7.1 mM,inactive: ≤ 0
same,scaled lipid accumulation score,[1],inactive: 0.067 and inactive: ≤ 0
Cc1cccc(CN2CCN(C(c3ccccc3)c3ccc(Cl)cc3)CC2)c1 (configuration not stated) [Meclizine hydrochloride],scaled lipid accumulation score,[1],inactive: 0.376 and inactive: 0.485
Cc1cccc(CN2CCN(C(c3ccccc3)c3ccc(Cl)cc3)CC2)c1 (configuration not stated) [Meclozine dihydrochloride],scaled lipid accumulation score,,inactive: 0.368
Cn1cnnc1Sc1c([N+](=O)[O-])ncn1C,scaled lipid accumulation score,[1],inactive: 0.013
CNCCC(Oc1ccccc1OC)c1ccccc1 (configuration not stated) [Nisoxetine hydrochloride],scaled lipid accumulation score,,inactive: 0.246
same,scaled lipid accumulation score,[1],inactive: 0.751 and inactive: 0.328
COc1ccccc1O [Guaiacol],scaled lipid accumulation score,library stock concentration: 16.1 mM,inactive: ≤ -0.006
CCCC1([C@H](O)C/C=C/[C@H]2[C@H](O)CC(=O)[C@@H]2CCCCCCC(=O)OC)CCC1 [Butaprost],scaled lipid accumulation score,[6],inactive: ≤ 0
CC1CNCCN1S(=O)(=O)c1cccc2cnccc12 (configuration not stated),scaled lipid accumulation score,[1],inactive: 0.081
COc1cc(CCC(C)=O)ccc1O [Vanillylacetone],scaled lipid accumulation score,[5],inactive: ≤ 0
same,scaled lipid accumulation score,[1],inactive: ≤ 0
CC12CC3CC(C)(C1)CC(N)(C3)C2.Cl [Memantine hydrochloride],scaled lipid accumulation score,[1],active: 1.05
CC(=O)OCC(=O)[C@@]1(O)CC[C@H]2[C@@H]3C[C@H](C)C4=CC(=O)C=C[C@]4(C)[C@H]3[C@@H](O)C[C@@]21C,scaled lipid accumulation score,[1],inactive: ≤ 0
Cl.O=S(=O)(c1cccc2c(Cl)cccc12)N1CCCNCC1 [ML 9 hydrochloride],scaled lipid accumulation score,[1],active: 0.941
CCCCCCCCCCCCCCCNC(=O)C1CCCCC1 [N-Cyclohexanecarbonylpentadecylamine],scaled lipid accumulation score,[6],inactive: ≤ 0
CC1CN(S(=O)(=O)c2cccc3cnccc23)CCN1 (configuration not stated),scaled lipid accumulation score,[1],inactive: 0.164
CCOC(=O)C1=C[C@]2(CC)CCCN3CCc4c(n1c1ccccc41)[C@@H]32 [Vinpocetine],scaled lipid accumulation score,,inactive: 0.008
same,scaled lipid accumulation score,library stock concentration: 5.7 mM,inactive: 0.199 and inactive: ≤ 0
same,scaled lipid accumulation score,[1],inactive: ≤ 0 and inactive: 0.413
same,scaled lipid accumulation score,library stock concentration: 14.3 mM,inactive: ≤ -0.021
CC(=O)c1cc2c(cc1O)OC(C)(C)C=C2 [Eupatoriochromene],scaled lipid accumulation score,[1],inactive: 0.066
CCCCC/C=C\C\C=C/C=C/C=C/[C@@H](SC[C@H](NC(=O)CC[C@H](N)C(=O)O)C(=O)NCC(=O)O)[C@@H](O)CCCC(=O)O [Leukotriene C4],scaled lipid accumulation score,[7],inactive: ≤ -0.021
COc1cc(C(=O)NC2CCCNC2)cc(OC)c1OC (configuration not stated) [Troxipide],scaled lipid accumulation score,[5],inactive: ≤ 0
same,scaled lipid accumulation score,[1],inactive: ≤ -0.001
O=c1c2sc(-c3ccc(F)cc3)cc2ncn1Cc1nc2ccccc2[nH]1,scaled lipid accumulation score,[1],active: 0.756
COC(=O)c1c(-c2cc(OC)c(OC)c(OC)c2)c2ccnc(OCc3ncccn3)c2c(=O)n1Cc1ccnc(C)c1 [T 0156 hydrochloride],scaled lipid accumulation score,[1],inactive: ≤ -0.006
c1ccc(N2CCN(Cc3nc4ccccc4[nH]3)CC2)nc1 [ABT 724 trihydrochloride],scaled lipid accumulation score,[1],inactive: ≤ -0.001
C[C@]12CC[C@@H]3c4ccc(O)cc4CC[C@H]3[C@@H]1CCC2=O [Estrone],scaled lipid accumulation score,,inactive: ≤ 0
same,scaled lipid accumulation score,[5],inactive: ≤ 0
same,scaled lipid accumulation score,[1],inactive: ≤ 0 and inactive: ≤ -0.013
"CCCCC[C@H](O)/C=C/[C@H]1[C@H](O)CC(=O)[C@@H]1CCCCCCCCC(=O)O [1a,1b-dihomo Prostaglandin E1]",scaled lipid accumulation score,[6],inactive: ≤ 0
Nc1ncnc2c1c(-c1cccc(OCc3ccccc3)c1)cn2C1CC(CN2CCC2)C1 (configuration not stated),scaled lipid accumulation score,[2],inactive: 0.167
same,scaled lipid accumulation score,[3],inactive: 0.351
same,scaled lipid accumulation score,[4],inactive: 0.67
same,scaled lipid accumulation score,[1],inactive: 0.657
c1cc(OCCN2CCCCC2)cc(-c2n[nH]c3ccc(-c4ncn[nH]4)cc23)c1,scaled lipid accumulation score,[1],active: 1.72
CCCCCCCCc1ccc(CCC(N)(CO)CO)cc1,scaled lipid accumulation score,[6],inactive: 0.527
CCCCCCCCc1ccc(CCC(N)(CO)CO)cc1 [Fingolimod (FTY720) HCl],scaled lipid accumulation score,[1],inactive: 0.376
CCCCCCCC/C=C\CCCCCCCC(=O)NCCc1ccc(O)c(O)c1 [N-Oleoyldopamine],scaled lipid accumulation score,[1],inactive: ≤ 0
CCCCCCCC/C=C\CCCCCCCC(=O)NCCc1ccc(O)c(O)c1 [N-Oleoyl Dopamine],scaled lipid accumulation score,[6],inactive: ≤ 0
O=Cc1cccc2[nH]ccc12 [4-formyl Indole],scaled lipid accumulation score,[6],inactive: ≤ 0
CN(C)[C@@H]1C(O)=C(C(N)=O)C(=O)[C@@]2(O)C(O)=C3C(=O)c4c(O)ccc(Cl)c4[C@@](C)(O)[C@H]3C[C@@H]12 [Chlortetracycline hydrochloride],scaled lipid accumulation score,,inactive: ≤ 0
same,scaled lipid accumulation score,[1],inactive: ≤ 0
O=C1OC2(c3ccc(O)cc3Oc3cc(O)ccc32)c2ccccc21 [Fluorescein],scaled lipid accumulation score,library stock concentration: 6 mM,inactive: 0.02
CC(=O)OCC1=C(C(=O)O)N2C(=O)[C@@H](NC(=O)CSc3ccncc3)[C@H]2SC1 [Cephapirin sodium],scaled lipid accumulation score,library stock concentration: 4.5 mM,inactive: ≤ -0.001
same,scaled lipid accumulation score,[1],inactive: ≤ 0
